Measurements taken from PubChem BioAssay AID1347043 (National Center for Advancing Translational Sciences (NCATS), 2019).
About 1,900 (2.5%) of roughly 76,000 compounds were called active. The shares of active, inactive and inconclusive entries below differ from those in the screen. Calls follow the shape of the dose curve; as a rule, active = well fitted inhibition curve with a large enough effect; inconclusive = small, poorly fitted or top-dose-only effect; inactive = flat fitted curve, though single readings scatter. A potency beside an inconclusive call is a rough fit, not a confirmed value.

What follows are compounds tested against Luciferin 4-monooxygenase (Photinus pyralis) (UniProt P08659) (assay: Firefly luciferase inhibition profiling of diverse chemical library using quantitative high-throughput screening). Conditions: purified P. pyralis luciferase, luminescence, biochemical; series mostly up to 115 µM.
Procedure, shortened: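 Luminescence read by CCD imaging after purified firefly luciferase (10nM final) was added to substrate buffer holding 10uM D-luciferin and 10uM ATP, pH 7.5, pre-dosed with compound.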
Also: nearly all actives have a fitted effect of over 65% in size.
Potency is read from the fitted curve at half-maximal effect; tags tell the direction and shape of the fitted curve.

UniProt P08659, sequence (P08659 whole entry, looked up): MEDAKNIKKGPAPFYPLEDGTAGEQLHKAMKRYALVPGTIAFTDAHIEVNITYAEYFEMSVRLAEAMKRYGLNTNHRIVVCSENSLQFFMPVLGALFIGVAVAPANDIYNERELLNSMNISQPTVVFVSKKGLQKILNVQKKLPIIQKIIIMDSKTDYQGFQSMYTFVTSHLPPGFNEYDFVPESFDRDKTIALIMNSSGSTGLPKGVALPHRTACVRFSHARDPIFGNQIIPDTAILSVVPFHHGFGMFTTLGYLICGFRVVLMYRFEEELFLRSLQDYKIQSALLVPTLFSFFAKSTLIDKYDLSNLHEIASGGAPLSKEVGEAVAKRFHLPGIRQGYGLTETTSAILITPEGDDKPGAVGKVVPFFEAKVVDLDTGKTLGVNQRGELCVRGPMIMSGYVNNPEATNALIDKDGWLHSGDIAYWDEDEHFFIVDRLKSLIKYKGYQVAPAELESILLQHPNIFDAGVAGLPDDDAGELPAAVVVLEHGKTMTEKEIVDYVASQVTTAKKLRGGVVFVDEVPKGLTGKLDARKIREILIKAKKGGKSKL

Compound | Potency
O=C(NCC1CCN(c2cc(-c3ccccc3)[nH]n2)CC1)c1ccc2nc[nH]c2c1 | inconclusive: 44.7 µM [inhibitor, partial curve]
Cn1cc(-c2cn(C)c(=O)n3cc(CNc4ccccc4)nc23)cn1 | inconclusive: 70.8 µM [inhibitor, partial curve, poor fit]
O=C(CCC1CCN(C(=O)c2ccccc2F)CC1)NCc1ccco1 | inconclusive: 39.8 µM [inhibitor, partial curve]
O=S(=O)(c1ccc2c(c1)OCCO2)N1CCCC(c2nc(CCOCC3CC3)no2)C1 (configuration not stated) | inactive
O=C(CC1CCOCC1)Nc1ccc(OC(F)(F)F)cc1 | inconclusive: 39.8 µM [inhibitor, partial curve]
COc1ccc(NC(=O)c2ccc3c(c2)N(C)C2CCCCCN2C3=O)c(OC)c1 (configuration not stated) | inconclusive: 44.7 µM [inhibitor, partial curve]
COCCN[C@@H]1C[C@@H]2c3[nH]c4ccccc4c3C[C@@H](C(=O)OC)N2[C@H](c2ccc(F)c(F)c2)C1 | inactive
c1cncc(Nc2cc3c(cn2)CN(CC2CCCCC2)CCN3)c1 | inconclusive: 79.4 µM [inhibitor, partial curve]
O=C(Nc1ccc2c(c1)OCCO2)C1CCN(C(=O)N2CC3CC(C2)[C@H]2CCCC(=O)N2C3)CC1 (some centres not stated) | active: 20 µM
O=C1CC(c2ccccc2)N(C(=O)C2CC2)CCCN(C(=O)c2c[nH]c3ccccc23)CCN1 (configuration not stated) | inconclusive: 22.4 µM [inhibitor, full curve]
CCc1ccc(NC(=O)c2ccc3c(c2)N(C)C2CCCCCN2C3=O)cc1 (configuration not stated) | inconclusive: 15.8 µM [inhibitor, full curve]
CSc1cccc(NC(=O)Cn2nc3c(cc2=O)CCCCC3)c1 | inconclusive: 44.7 µM [inhibitor, partial curve, poor fit]
COc1ccc(NC(=O)N2CCC3(CC2)SCC(=O)N3c2ccc(F)cc2)cc1 | inconclusive: 11.2 µM [inhibitor, partial curve, poor fit]
CCCc1ccc(-c2nc(C3CCOC3)no2)cc1 (configuration not stated) | active: 1.12 µM
COCCNC(=O)CCc1ccc2c(c1)CN(C(=O)NC(C)C)CCO2 | inactive
O=C(c1ccc(-c2ccccc2)cc1)N1C[C@@H]2C[C@H](C1)c1ccc(NS(=O)(=O)c3cccc(F)c3)c(=O)n1C2 | inconclusive: 89.1 µM [inhibitor, single point]
Nc1nc(CCCNC(=O)c2cn(C3CCC(N)CC3)nn2)cs1 (configuration not stated) | inconclusive: 50.1 µM [inhibitor, partial curve]
Cc1cccc(-c2cccc(NC(=O)C3CCCN(C(=O)c4cccc(C)n4)C3)c2)c1 (configuration not stated) | active: 25.1 µM
c1cc2c(cc1-c1n[nH]c(C3CCOCC3)n1)OCO2 | inconclusive: 50.1 µM [inhibitor, partial curve]
COc1ccc(C(=O)NC2CCCN(c3cc(-c4ccc(Cl)cc4)[nH]n3)C2)cc1OC (configuration not stated) | active: 3.98 µM
O=C(NCC1CCOCC1)c1c[nH]c2ccccc12 | inconclusive: 50.1 µM [inhibitor, partial curve]
OCCC1CN(Cc2c(F)ccc(F)c2F)CCN1C1CCCC1 (configuration not stated) | inactive
Cc1ccc(-c2ncc(C(=O)NCCN(C)C3CCCCC3)c(-c3ccncc3)n2)cc1 | inactive

Compound | Potency
CN(C)Cc1cn2c(=O)n(C)cc(-c3cccc(OC(F)(F)F)c3)c2n1 | inactive
COc1ccc2nc([C@H]3CCN(Cc4ccc(C(=O)O)cc4)C3)[nH]c2c1 | inconclusive: 79.4 µM [inhibitor, partial curve]
O=C(NCC1CC1)c1ccnc(-c2nnc3ccc(Nc4ccccc4)nn23)c1 | inactive
CCN1C(=O)CCc2cc(NC(=O)c3cc(F)cc(F)c3)ccc21 | inconclusive: 39.8 µM [inhibitor, partial curve]
C[C@H]1[C@@H]2[C@H]3OC(=O)[C@@H](C)[C@@H]3CC[C@@]2(C)CC[C@@H]1NC(=O)CC(C)(C)C | inactive
O=C(COc1ccc(F)cc1)N1CCCC(c2noc(COc3ccccc3F)n2)C1 (configuration not stated) | inconclusive: 56.2 µM [inhibitor, partial curve]
CC1CCC(Nc2ncncc2-c2nc(-c3ccccc3)no2)CC1 (configuration not stated) | inactive
COc1ccc2c(c1)OCC(C(=O)NCc1csc(N3CCCC3)n1)C2 (configuration not stated) | inconclusive: 39.8 µM [inhibitor, partial curve]
O=C(NCC1CCCO1)c1ccc(-c2ccc(N3CCSCC3)nc2)cc1 (configuration not stated) | inconclusive: 35.5 µM [inhibitor, partial curve, poor fit]
CCc1ccc(CNC(=O)C2CCN(C(=O)c3nnn4c3COC(c3ccc(C)cc3)C4)CC2)cc1 (configuration not stated) | active: 39.8 µM
Cc1ccc(-c2cc(N3CCCN(C(=O)Cc4ccccc4)CC3)n[nH]2)cc1C | inconclusive: 56.2 µM [inhibitor, partial curve, poor fit]
COC(=O)c1ccc2nc(CO[C@H]3CN(Cc4ccccc4C)C[C@H]3F)[nH]c2c1 | inconclusive: 112 µM [inhibitor, single point]
NC(=O)c1cccc(-c2ncc3c(n2)OCCN(CC2CC2)C3=O)c1 | inconclusive: 44.7 µM [inhibitor, partial curve]
COc1ccccc1-c1nc2nccc(-c3ccco3)n2n1 | inconclusive: 50.1 µM [inhibitor, partial curve, poor fit]
CCOc1c(CNC(=O)C2CCN(C(=O)C3CCCC3)CC2)cccc1OC | inactive
CC(C)c1ccc(C(=O)NCc2c[nH]c3ncccc23)cc1 | inconclusive: 39.8 µM [inhibitor, partial curve]
CCOc1ccc(-c2cc3c(=O)n(CCNC(=O)c4ccc[nH]4)ccn3n2)cc1 | inconclusive: 3.98 µM [inhibitor, full curve, poor fit]
COc1cccc(NC(=O)c2ccc3c(c2)NC(C)(COCCN(C)C)CO3)c1 (configuration not stated) | inconclusive: 63.1 µM [inhibitor, full curve]
COc1ccc2ccc(OCc3nc(C(=O)N4CCCC(C)(CO)C4)co3)cc2c1 (configuration not stated) | inconclusive: 44.7 µM [inhibitor, partial curve, poor fit]
COc1cccc(-c2cccc(COc3cnc4c(ccn4CC(=O)O)c3)c2)c1F | active: 12.6 µM
CCN1c2cc(C(=O)Nc3ccccc3)ccc2C(=O)N2CCCCC21 (configuration not stated) | inconclusive: 44.7 µM [inhibitor, partial curve, poor fit]
CCN1c2cc(C(=O)Nc3ccc(N(C)C)cc3)ccc2C(=O)N2CCCCC21 (configuration not stated) | active: 11.2 µM
Cc1ccsc1-c1[nH]nc2ncc(-c3cccc(CO)c3)nc12 | inconclusive: 28.2 µM [inhibitor, full curve]

Compound | Potency
COc1ccc(-n2nc(C)c([C@H]3C=C[C@@H](OC(=O)Nc4cccc(F)c4)C3)c2C)cc1 | inconclusive: 70.8 µM [inhibitor, partial curve]
O=C(O)CCn1ncc2cc(OCC3CCN(C(=O)OC4CCCC4)CC3)ccc21 | inconclusive: 70.8 µM [inhibitor, partial curve]
Cc1cccc(CNC(=O)C2CCN(C(=O)c3ncn4c3COC(c3ccc(F)cc3)C4)CC2)c1 (configuration not stated) | active: 44.7 µM
COc1ccc(-c2ncc3c(n2)OCCN(c2ccccc2)C3=O)cc1F | active: 0.708 µM
CC(C)N1C[C@@H]2C[C@H]1C(=O)N(Cc1ccccc1)c1ccccc1O2 | inactive
CN(C)c1ccc(CN2CC[C@H](c3nc4ccccc4n3C)C2)cc1 | inconclusive: 79.4 µM [inhibitor, partial curve]
COc1ccc(-c2nnc3ccc(Nc4cccc(OC)c4)nn23)nc1 | inactive
COc1ccc(CCC(=O)N2CC[C@H](CO)[C@H](NC(=O)C3CC3)C2)cc1 | inconclusive: 50.1 µM [inhibitor, partial curve]
CN(C)Cc1nnc(C2CCCN(C(=O)C3(N)CCNCC3)C2)n1C (configuration not stated) | inactive
COCCc1ccc(OCc2ccccc2-c2ccc(=O)n(C)n2)cc1 | inconclusive: 50.1 µM [inhibitor, partial curve]
CC(C)SCC(=O)N1CCCn2nc(C(=O)Nc3ccccc3)cc2C1 | inconclusive: 44.7 µM [inhibitor, partial curve]
CC(C)(C)n1cc(-c2cc(C(=O)N3C[C@H]4CC[C@H]3C4)c3ccccc3n2)cn1 | active: 2.82 µM
O=C(c1n[nH]c2ccccc12)N1CCC(Cc2nc(-c3ccncc3)n[nH]2)CC1 | inactive
Cc1ccsc1C(=O)NCC1(C)CCOCC1 | inconclusive: 50.1 µM [inhibitor, partial curve]
O=C(NC1CCCN(c2cc(-c3ccc(Cl)cc3)[nH]n2)C1)c1ccoc1 (configuration not stated) | inconclusive: 3.16 µM [inhibitor, full curve]
F[C@@H]1CN(C2CCC2)C[C@@H]1OCc1nc2ccccc2o1 | active: 79.4 µM
COc1ccc(C(=O)Nc2ccc3n(c2=O)C[C@H]2C[C@@H]3CN(C(=O)CCCC(=O)O)C2)cc1 | active: 12.6 µM
Cc1cccc(CN2CCCC3(CCN(c4nc5ccccc5o4)C3)C2=O)c1 (configuration not stated) | inconclusive: 39.8 µM [inhibitor, partial curve]
CC(C)Cc1cn(CC2CCCN(C(=O)c3ccc4c(c3)CCO4)C2)nn1 (configuration not stated) | inconclusive: 44.7 µM [inhibitor, partial curve, poor fit]
Cc1oc2ccn(Cc3cccc(F)c3)c(=O)c2c1C(=O)N(C)Cc1ccccc1 | inconclusive: 50.1 µM [inhibitor, partial curve]
O=C(c1ccn[nH]1)N1CC=C(c2cnc3cnc(-c4ccccc4)cn23)CC1 | inactive
